Screen size: about 94,000 compounds; about 6,200 (6.6%) were called active. Inconclusive results, whose numbers are uncertain, are shown with a selection of clear calls. The call rests on the fitted dose curve; in most records, active means well fitted inhibition curve with a large enough effect; inconclusive means small, poorly fitted or top-dose-only effect; inactive means flat fitted curve, though single readings scatter. A potency beside an inconclusive call is a rough fit, not a confirmed value.
Assay: Cytotoxic Profiling in HEK 293 Cell Line of Diverse Libraries Using Quantitative High-Throughput Screening; further: nearly all actives have a fitted effect of over 60% in size
Details: HEK 293 viability, ATP luminescence (CellTiter-Glo), 48-72 h; series mostly up to 115 µM
Summary of the method: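 ATP-coupled CellTiter-Glo luminescence served as viability read-out, recorded 10 min after reagent addition at room temperature. HEK 293 cells, 250 cells/well, had been incubated with pintool-transferred compound for 48 or 72 hr at 37 degree Celsius.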
Potency means the concentration at half of the fitted maximal effect; tags describe the fitted curve by direction and shape.

Row | SMILES | Potency
1 | COc1cccc(-c2ccc(C(=O)N3CCC(NC(=O)N(C)C)CC3)cc2)c1 | inconclusive: 44.7 µM [inhibitor, partial curve]
2 | O=C(NC1CCCN(c2cc(-c3ccccc3)[nH]n2)C1)c1cc(F)ccc1F (centres undefined) | inconclusive: 35.5 µM [inhibitor, partial curve, poor fit]
3 | COCC1CN(C2CCC2)CC12CCN(C(=O)Cc1ccccc1OC)CC2 (centres undefined) | inconclusive: 50.1 µM [inhibitor, partial curve, poor fit]
4 | CCCCS(=O)(=O)N1CCC(F)(c2nc(-c3ccccc3)no2)CC1 | inconclusive: 89.1 µM [inhibitor, single point]
5 | CN(C)c1cccc(C(=O)N2CCn3nc(Cc4ccccc4)cc3C2)c1 | inconclusive: 39.8 µM [inhibitor, full curve, poor fit]
6 | NC(=O)C1(N2CCCCC2)CCN(C(=O)c2cc3n(n2)CC(c2ccc(Cl)cc2)OC3)CC1 (centres undefined) | inconclusive: 44.7 µM [inhibitor, partial curve, poor fit]
7 | Cc1c(Cn2cc(-c3cncnc3)nn2)oc2ccccc12 | inactive
8 | Cc1ccccc1Cn1cc(C(=O)N2CCN(C3CCCCC3)C(=O)C2)nn1 | inconclusive: 100 µM [inhibitor, single point]
9 | CCC(C)NC(=O)Cn1nc(C)c2sc(-c3ccccc3)nc2c1=O (centres undefined) | inconclusive: 3.16 µM [inhibitor, full curve, poor fit]
10 | Cn1cc(-c2ccc(F)cc2)cc1C(=O)NCCCN1CCCCC1 | inconclusive: 89.1 µM [inhibitor, single point]
11 | COc1ccc(NC(=O)c2cc3c(=O)[nH]c(C)cn3n2)cc1OC | inconclusive: 89.1 µM [inhibitor, single point]
12 | O=C1NCCN2CC3(CCN(C(=O)CC4CCCCC4)CC3)CC12 (centres undefined) | inactive
13 | COc1ccc(-c2noc(-c3cccn3CC(=O)NCCc3ccccc3)n2)cc1F | inactive
14 | O=C(NCc1nnc2cc(-c3nc(C4CC4)no3)ccn12)c1cccc(Cl)c1 | inconclusive: 3.55 µM [inhibitor, full curve, poor fit]
15 | Fc1ccc(CN2CC[C@H](c3nc4ccccc4s3)C2)cc1F | active: 100 µM
16 | Fc1ccc(OCc2nc(C3CCNC3)no2)cc1 (centres undefined) | inactive
17 | Cc1cn2nc(C(=O)NCC(C)c3ccccc3)cc2c(N2CCCC2)n1 (centres undefined) | inconclusive: 50.1 µM [inhibitor, partial curve, poor fit]
18 | COc1ccc(O[C@H]2COCCN(S(=O)(=O)c3ccc(F)cc3)C2)cc1 | inconclusive: 100 µM [inhibitor, partial curve]
19 | COC[C@@H]1CN(c2ncccn2)C[C@H]1C(=O)NCc1ccccn1 | inactive
20 | COc1ccc(C(=O)N2CCC3(CC2)NC(=O)N(c2ccc(F)cc2)N3)cc1 | inconclusive: 28.2 µM [inhibitor, full curve]
21 | COc1ccccc1Cc1nc(-c2nnn3c2COC(c2ccc(Cl)cc2)C3)no1 (centres undefined) | inconclusive: 44.7 µM [inhibitor, partial curve]
22 | CNC(=O)c1cc(C)nc2onc(C3CCCN(C(=O)c4ccc(C(F)(F)F)cc4)C3)c12 (centres undefined) | inconclusive: 63.1 µM [inhibitor, partial curve, poor fit]

Row | SMILES | Potency
23 | O=C(NCCOc1ccccc1)[C@@H]1C[C@H](c2ccc(F)cc2)N([S+](=O)([O-])C2CC2)C1 | inconclusive: 126 µM [inhibitor, single point]
24 | COc1ccc(CNC(=O)C2(c3ccc(NC(C)=O)cc3)CCCCC2)cc1 | inconclusive: 70.8 µM [inhibitor, single point]
25 | COCC1CN(S(=O)(=O)c2ccc3c(c2)OCCO3)CC12CCNCC2 (centres undefined) | inactive
26 | O=C(C1CC1)N1CCC(Cc2nc(C3CCOCC3)no2)CC1 | inactive
27 | O=C(c1ccn[nH]1)N1C[C@@H](COCC2CC2)[C@H](c2ccncc2)C1 | inactive
28 | Cc1ccc(-c2cn3c(n2)N(C(=O)c2cnn4cccnc24)CCC3)cc1 | active: 79.4 µM
29 | c1ccc(CN(Cc2ccccn2)[C@@H]2C[C@@H]3CO[C@H](c4ccccc4)C[C@@H]3C2)cc1 | inconclusive: 79.4 µM [inhibitor, partial curve, poor fit]
30 | CN(C)C[C@H]1O[C@@H]2C[C@@H](CC(=O)N3CCC(F)(F)C3)O[C@@H]2[C@@H]1O | inactive
31 | Cc1cc(C)cc(C(=O)NCc2nnc3c(-c4nc(C5CC5)no4)cccn23)c1 | inactive
32 | O=C(NCc1ccc(Cl)cc1)[C@@H]1Cc2nc[nH]c2CN1Cc1cccs1 | inconclusive: 100 µM [inhibitor, partial curve, poor fit]
33 | O=C(c1cc(F)ccc1Cl)N1CCC(n2cc(-c3nc(-c4ccccc4)no3)nn2)C1 (centres undefined) | inconclusive: 31.6 µM [inhibitor, partial curve, poor fit]
34 | FC(F)(F)C1CN(c2ccnc3ccc(Cl)cc23)CCO1 (centres undefined) | active: 39.8 µM
35 | CC(C)CNC(=O)c1cc(-c2ccsc2)nc2c1cnn2C | active: 70.8 µM
36 | CCS(=O)(=O)NCc1nc(-c2ccc(C)cc2)c(-c2ccccn2)[nH]1 | inconclusive: 63.1 µM [inhibitor, partial curve, poor fit]
37 | O=C(c1n[nH]c2ccccc12)N1CCC(OCCOc2ccc(F)cc2)CC1 | inconclusive: 56.2 µM [inhibitor, partial curve, poor fit]
38 | CCc1cccc2c(C(CC(=O)N3CCCCC3)c3cccc(C)c3)c[nH]c12 (centres undefined) | inconclusive: 25.1 µM [inhibitor, partial curve, poor fit]
39 | COc1ccc(-c2ccc(C(=O)NCC3CC3)c(Cl)c2)nn1 | inactive
40 | Cc1cc(C)c(S(=O)(=O)NCCn2c(C)cnc2C2CC2)c(C)c1 | inconclusive: 25.1 µM [inhibitor, partial curve]
41 | C#CCNC(=O)c1nc2sccn2c1-c1ccc(C(F)(F)F)cc1 | inconclusive: 89.1 µM [inhibitor, partial curve, poor fit]
42 | CCOC(=O)[C@H]1C[C@]2(CCCCN(CCO)C2=O)N(C(=O)CC2CCCC2)[C@H]1c1ccco1 | inconclusive: 79.4 µM [inhibitor, partial curve, poor fit]
43 | Cc1cc(C(=O)N2CCc3nn(Cc4ccccc4)c(=O)n3CC2)nn1C | inactive
44 | COC(=O)c1cccc(NC(=S)N[C@@H]2C=C[C@@H](c3c(C)nn(-c4ccc(C(C)C)cc4)c3C)C2)c1 | inconclusive: 31.6 µM [inhibitor, full curve]

Row | SMILES | Potency
45 | COc1ccc(C(=O)N2CCC(c3nc(-c4cccn4C)no3)CC2)c(OC)c1 | inconclusive: 44.7 µM [inhibitor, partial curve, poor fit]
46 | O=C(C1CCCCC1)N1CCC2(CC1)CC(Cc1nc(-c3cnccn3)no1)CCO2 (centres undefined) | inactive
47 | O=C(Cc1cccc(F)c1)NCCn1cccc1-c1nc(-c2ccc3c(c2)OCO3)no1 | inconclusive: 56.2 µM [inhibitor, partial curve, poor fit]
48 | Cc1nc(-c2cccc(Cl)c2)n(Cc2cccc(F)c2)c(=O)c1CCO | inconclusive: 50.1 µM [inhibitor, partial curve, poor fit]
49 | COc1ccc(NC(=O)c2nc3sccn3c2-c2ccc(C(F)(F)F)cc2)cc1 | inconclusive: 35.5 µM [inhibitor, full curve, poor fit]
50 | CC(C)C(=O)N1CCC2(CCC(=O)N(Cc3ccccc3)CC2)CC1 | inconclusive: 50.1 µM [inhibitor, partial curve, poor fit]
51 | O=C(Nc1ccc([C@@H](O)[C@H]2COCC(=O)N2CCCc2ccccc2)cc1)c1ccco1 | inactive
52 | Cc1ccc(NC(=O)CC2CCCCN(Cc3ccccc3)C2=O)cc1 (centres undefined) | inconclusive: 56.2 µM [inhibitor, partial curve, poor fit]
53 | O=S(=O)(Cc1ccccc1)NC[C@H]1COCc2nc3ccccc3n21 | inconclusive: 70.8 µM [inhibitor, partial curve]
54 | COc1ccc(CNC(=O)c2ccc(Cn3ccn4nc5c(c4c3=O)CCCC5)cc2)cc1 | active: 20 µM
55 | CC(C)c1noc(-c2cn(C3CCN(C(=O)c4cccc(OC(F)(F)F)c4)C3)nn2)n1 (centres undefined) | inconclusive: 31.6 µM [inhibitor, partial curve, poor fit]
56 | CO[C@H]1C(=O)N(C2CCN(C(=O)COc3ccccc3)CC2)[C@H]1c1ccncc1 | inactive
57 | Cn1c(-c2ccc(CN3CC[C@H]4CNC[C@H]43)o2)nc2ccccc21 | inconclusive: 56.2 µM [inhibitor, partial curve, poor fit]
58 | COc1ccccc1CN1CCCn2nc(C)c(-c3ccccc3C(N)=O)c21 | active: 22.4 µM
59 | O=C(NCCN1CCOCC1)c1nc2sccn2c1-c1cccnc1 | inactive
60 | CCc1cn[nH]c1C1CCCN(C(=O)c2oc3cc(C)ccc3c2C)C1 (centres undefined) | inconclusive: 50.1 µM [inhibitor, partial curve, poor fit]
61 | CC(=O)Nc1cc(-c2ccccn2)nn1-c1ccccc1 | inactive
62 | COc1ncccc1-c1cc(C(=O)NCc2c(C)cc(C)[nH]c2=O)c2c(c1)N(C(C)C)CCO2 | inconclusive: 70.8 µM [inhibitor, partial curve, poor fit]
63 | CC(C)(C)NC(=O)N1CCOc2ccc(CN3CCc4ccccc4C3)cc2C1 | inconclusive: 44.7 µM [inhibitor, partial curve, poor fit]
64 | CN(C)c1ccc(NC(=O)CCn2ccn3nc4c(c3c2=O)CCCC4)cc1 | inconclusive: 89.1 µM [inhibitor, single point]
